This is one part of the list.
What was measured:
Experiment in all cases: glycan array binding signal (z-score within array); higher = stronger binding
Conditions in all cases: glycan notation: IUPAC condensed, linker removed
[1] = target: GlcNAc(a1-6)Gal(b1-4)GlcNAc
In short: (§1)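 From the Consortium for Functional Glycomics database, 3228 arrays were curated, keeping only those whose protein sequence was available. Binding is given as a within-array Z-score averaged across arrays sharing a protein sequence and across linkers. Negative Z-scores can be read as non-binding.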

[2] = target: GlcNAc(b1-2)Gal(b1-3)GalNAc
In short: as §1

[3] = target: GlcNAc(b1-2)Man(a1-3)[GlcNAc(b1-2)Man(a1-6)]Man(b1-4)GlcNAc(b1-4)GlcNAc
In short: as §1

[4] = target: GlcNAc(b1-2)Man(a1-3)[GlcNAc(b1-2)Man(a1-6)]Man(b1-4)GlcNAc(b1-4)[Fuc(a1-6)]GlcNAc
In short: as §1

[5] = target: GlcNAc(b1-2)Man(a1-3)[GlcNAc(b1-4)][GlcNAc(b1-2)Man(a1-6)]Man(b1-4)GlcNAc(b1-4)GlcNAc
In short: as §1

[6] = target: GlcNAc(b1-2)Man(a1-3)[GlcNAc(b1-4)][GlcNAc(b1-2)Man(a1-6)]Man(b1-4)GlcNAc(b1-4)[Fuc(a1-6)]GlcNAc
In short: as §1

[7] = target: GlcNAc(b1-2)[GlcNAc(b1-4)]Man(a1-3)[GlcNAc(b1-2)Man(a1-6)]Man(b1-4)GlcNAc(b1-4)GlcNAc
In short: as §1

[8] = target: GlcNAc(b1-2)[GlcNAc(b1-4)]Man(a1-3)[GlcNAc(b1-4)][GlcNAc(b1-2)Man(a1-6)]Man(b1-4)GlcNAc(b1-4)GlcNAc
In short: as §1

[9] = target: GlcNAc(b1-2)[GlcNAc(b1-4)]Man(a1-3)[GlcNAc(b1-4)][GlcNAc(b1-2)[GlcNAc(b1-6)]Man(a1-6)]Man(b1-4)GlcNAc(b1-4)GlcNAc
In short: as §1

[10] = target: GlcNAc(b1-2)[GlcNAc(b1-4)]Man(a1-3)[GlcNAc(b1-4)][GlcNAc(b1-2)[GlcNAc(b1-6)]Man(a1-6)]Man(b1-4)GlcNAc(b1-4)[Fuc(a1-6)]GlcNAc
In short: as §1

[11] = target: GlcNAc(b1-2)[GlcNAc(b1-6)]Man(a1-6)[GlcNAc(b1-2)Man(a1-3)]Man(b1-4)GlcNAc(b1-4)GlcNAc
In short: as §1

[12] = target: GlcNAc(b1-2)[GlcNAc(b1-6)]Man(a1-6)[GlcNAc(b1-2)Man(a1-3)]Man(b1-4)GlcNAc(b1-4)[Fuc(a1-6)]GlcNAc
In short: as §1

[13] = target: GlcNAc(b1-2)[GlcNAc(b1-6)]Man(a1-6)[GlcNAc(b1-4)][GlcNAc(b1-2)Man(a1-3)]Man(b1-4)GlcNAc(b1-4)GlcNAc
In short: as §1

GlcNAc(b1-3)Fuc = target: GlcNAc(b1-3)Fuc
In short: as §1

GlcNAc(b1-3)Gal = target: GlcNAc(b1-3)Gal
In short: as §1

[14] = target: GlcNAc(b1-3)Gal(b1-3)GalNAc
In short: as §1

GlcNAc(b1-3)Gal(b1-4)Glc = target: GlcNAc(b1-3)Gal(b1-4)Glc
In short: as §1

[15] = target: GlcNAc(b1-3)Gal(b1-4)GlcNAc
In short: as §1

[16] = target: GlcNAc(b1-3)Gal(b1-4)GlcNAc(b1-2)Man(a1-3)[GlcNAc(b1-3)Gal(b1-4)GlcNAc(b1-2)Man(a1-6)]Man(b1-4)GlcNAc(b1-4)GlcNAc
In short: as §1

[17] = target: GlcNAc(b1-3)Gal(b1-4)GlcNAc(b1-2)Man(a1-3)[GlcNAc(b1-3)Gal(b1-4)GlcNAc(b1-2)Man(a1-6)]Man(b1-4)GlcNAc(b1-4)[Fuc(a1-6)]GlcNAc
In short: as §1

[18] = target: GlcNAc(b1-3)Gal(b1-4)GlcNAc(b1-2)[GlcNAc(b1-3)Gal(b1-4)GlcNAc(b1-6)]Man(a1-6)[GlcNAc(b1-3)Gal(b1-4)GlcNAc(b1-2)Man(a1-3)]Man(b1-4)GlcNAc(b1-4)GlcNAc
In short: as §1

[19] = target: GlcNAc(b1-3)Gal(b1-4)GlcNAc(b1-3)Gal(b1-4)GlcNAc
In short: as §1

[20] = target: GlcNAc(b1-3)Gal(b1-4)GlcNAc(b1-3)Gal(b1-4)GlcNAc(b1-2)Man(a1-3)[GlcNAc(b1-3)Gal(b1-4)GlcNAc(b1-3)Gal(b1-4)GlcNAc(b1-2)Man(a1-6)]Man(b1-4)GlcNAc(b1-4)GlcNAc
In short: as §1

[21] = target: GlcNAc(b1-3)Gal(b1-4)GlcNAc(b1-3)Gal(b1-4)GlcNAc(b1-2)Man(a1-3)[GlcNAc(b1-3)Gal(b1-4)GlcNAc(b1-3)Gal(b1-4)GlcNAc(b1-2)Man(a1-6)]Man(b1-4)GlcNAc(b1-4)[Fuc(a1-6)]GlcNAc
In short: as §1

[22] = target: GlcNAc(b1-3)Gal(b1-4)GlcNAc(b1-3)Gal(b1-4)GlcNAc(b1-2)[GlcNAc(b1-3)Gal(b1-4)GlcNAc(b1-3)Gal(b1-4)GlcNAc(b1-6)]Man(a1-6)[GlcNAc(b1-3)Gal(b1-4)GlcNAc(b1-3)Gal(b1-4)GlcNAc(b1-2)Man(a1-3)]Man(b1-4)GlcNAc(b1-4)[Fuc(a1-6)]GlcNAc
In short: as §1

[23] = target: GlcNAc(b1-3)Gal(b1-4)GlcNAc(b1-3)Gal(b1-4)GlcNAc(b1-3)Gal(b1-4)GlcNAc(b1-2)Man(a1-3)[GlcNAc(b1-3)Gal(b1-4)GlcNAc(b1-3)Gal(b1-4)GlcNAc(b1-3)Gal(b1-4)GlcNAc(b1-2)Man(a1-6)]Man(b1-4)GlcNAc(b1-4)GlcNAc
In short: as §1

[24] = target: GlcNAc(b1-3)Gal(b1-4)GlcNAc(b1-3)Gal(b1-4)GlcNAc(b1-3)Gal(b1-4)GlcNAc(b1-2)Man(a1-3)[GlcNAc(b1-3)Gal(b1-4)GlcNAc(b1-3)Gal(b1-4)GlcNAc(b1-3)Gal(b1-4)GlcNAc(b1-2)Man(a1-6)]Man(b1-4)GlcNAc(b1-4)[Fuc(a1-6)]GlcNAc
In short: as §1

[25] = target: GlcNAc(b1-3)Gal(b1-4)GlcNAc(b1-3)Gal(b1-4)GlcNAc(b1-3)Gal(b1-4)GlcNAc(b1-2)[GlcNAc(b1-3)Gal(b1-4)GlcNAc(b1-3)Gal(b1-4)GlcNAc(b1-3)Gal(b1-4)GlcNAc(b1-6)]Man(a1-6)[GlcNAc(b1-3)Gal(b1-4)GlcNAc(b1-3)Gal(b1-4)GlcNAc(b1-3)Gal(b1-4)GlcNAc(b1-2)Man(a1-3)]Man(b1-4)GlcNAc(b1-4)[Fuc(a1-6)]GlcNAc
In short: as §1

[26] = target: GlcNAc(b1-3)Gal(b1-4)GlcNAc(b1-3)Gal(b1-4)GlcNAc(b1-3)Gal(b1-4)GlcNAc(b1-3)Gal(b1-4)GlcNAc(b1-2)Man(a1-3)[GlcNAc(b1-3)Gal(b1-4)GlcNAc(b1-3)Gal(b1-4)GlcNAc(b1-3)Gal(b1-4)GlcNAc(b1-3)Gal(b1-4)GlcNAc(b1-2)Man(a1-6)]Man(b1-4)GlcNAc(b1-4)GlcNAc
In short: as §1

[27] = target: GlcNAc(b1-3)Gal(b1-4)GlcNAc(b1-3)Gal(b1-4)GlcNAc(b1-3)Gal(b1-4)GlcNAc(b1-3)Gal(b1-4)GlcNAc(b1-2)Man(a1-3)[GlcNAc(b1-3)Gal(b1-4)GlcNAc(b1-3)Gal(b1-4)GlcNAc(b1-3)Gal(b1-4)GlcNAc(b1-3)Gal(b1-4)GlcNAc(b1-2)Man(a1-6)]Man(b1-4)GlcNAc(b1-4)[Fuc(a1-6)]GlcNAc
In short: as §1

[28] = target: GlcNAc(b1-3)Gal(b1-4)GlcNAc(b1-3)Gal(b1-4)GlcNAc(b1-3)Gal(b1-4)GlcNAc(b1-3)Gal(b1-4)GlcNAc(b1-2)[GlcNAc(b1-3)Gal(b1-4)GlcNAc(b1-3)Gal(b1-4)GlcNAc(b1-3)Gal(b1-4)GlcNAc(b1-3)Gal(b1-4)GlcNAc(b1-6)]Man(a1-6)[GlcNAc(b1-3)Gal(b1-4)GlcNAc(b1-3)Gal(b1-4)GlcNAc(b1-3)Gal(b1-4)GlcNAc(b1-3)Gal(b1-4)GlcNAc(b1-2)Man(a1-3)]Man(b1-4)GlcNAc(b1-4)[Fuc(a1-6)]GlcNAc
In short: as §1

[29] = target: GlcNAc(b1-3)Gal(b1-4)GlcNAc(b1-3)Gal(b1-4)GlcNAc(b1-3)GalNAc
In short: as §1

[30] = target: GlcNAc(b1-3)Gal(b1-4)GlcNAc(b1-3)GalNAc
In short: as §1

[31] = target: GlcNAc(b1-3)Gal(b1-4)GlcNAc(b1-3)[GlcNAc(b1-3)Gal(b1-4)GlcNAc(b1-3)]GalNAc
In short: as §1

[32] = target: GlcNAc(b1-3)Gal(b1-4)GlcNAc(b1-6)[Gal(b1-3)]GalNAc
In short: as §1

[33] = target: GlcNAc(b1-3)Gal(b1-4)GlcNAc(b1-6)[GlcNAc(b1-3)Gal(b1-3)]GalNAc
In short: as §1

[34] = target: GlcNAc(b1-3)Gal(b1-4)GlcNAc(b1-6)[GlcNAc(b1-3)]Gal(b1-4)GlcNAc
In short: as §1

GlcNAc(b1-3)GalNAc = target: GlcNAc(b1-3)GalNAc
In short: as §1

GlcNAc(b1-3)Man = target: GlcNAc(b1-3)Man
In short: as §1

[35] = target: GlcNAc(b1-3)[GlcNAc(b1-4)][GlcNAc(b1-6)]GlcNAc
In short: as §1

[36] = target: GlcNAc(b1-3)[GlcNAc(b1-6)]Gal(b1-4)GlcNAc
In short: as §1

[37] = target: GlcNAc(b1-3)[GlcNAc(b1-6)]GalNAc
In short: as §1

[38] = target: GlcNAc(b1-4)Gal(b1-4)GlcNAc
In short: as §1

GlcNAc(b1-4)GlcNAc = target: GlcNAc(b1-4)GlcNAc
In short: as §1

[39] = target: GlcNAc(b1-4)GlcNAc(b1-4)GlcNAc
In short: as §1

B1: Sebin1 (Coprinopsis cinerea), A8PEE3 (protein)
chain: MTSPFYAHIHNVQDDNTWRFTLIFANRATADEWWRAISEAPANTSIAKSITRVTPQYYTHDVNIWNIWNFFADGNIKSISERFRGRLFIVLENDRGGRGITVIPPVPIVDHVSGNWFYIRSKTAPHLFWYYDERRSSIYASKEKRTRFKISIRNPSSQTPKNAIMINTDDVTIHIKENLYVGVDNNLGHIIPTRAYRTFKFGELESGAIAGFDVVENIEERCSSTFDGASLSISGPDSSSPGEPWELV
In the case of B1, the “glycan array binding signal (z-score)” value [1] is reported as -0.309, the “glycan array binding signal (z-score)” value [2] is reported as -0.086 and the “glycan array binding signal (z-score)” value [3] is reported as 0.12. The “glycan array binding signal (z-score)” value [4] was 0.262, the “glycan array binding signal (z-score)” value [5] was 1.01 and the “glycan array binding signal (z-score)” value [6] was -0.296. For the same binder, the “glycan array binding signal (z-score)” value [7] was 0.255, the “glycan array binding signal (z-score)” value [8] was 2.33 and the “glycan array binding signal (z-score)” value [9] was 0.419. For the same binder, the “glycan array binding signal (z-score)” value [10] was -0.274, the “glycan array binding signal (z-score)” value [11] was -0.356 and the “glycan array binding signal (z-score)” value [12] was -0.058. The “glycan array binding signal (z-score)” value [13] was -0.006, the “glycan array binding signal (z-score)” value (GlcNAc(b1-3)Fuc) was -0.715 and the “glycan array binding signal (z-score)” value (GlcNAc(b1-3)Gal) was -0.291. The “glycan array binding signal (z-score)” value [14] was -0.466, the “glycan array binding signal (z-score)” value (GlcNAc(b1-3)Gal(b1-4)Glc) was -0.251 and the “glycan array binding signal (z-score)” value [15] was -0.457. For the same binder, the “glycan array binding signal (z-score)” value [16] was -0.501, the “glycan array binding signal (z-score)” value [17] was 0.282 and the “glycan array binding signal (z-score)” value [18] was -0.792. The “glycan array binding signal (z-score)” value [19] was -0.374, the “glycan array binding signal (z-score)” value [20] was 0.145 and the “glycan array binding signal (z-score)” value [21] was -0.269. The “glycan array binding signal (z-score)” value [22] was -0.425, the “glycan array binding signal (z-score)” value [23] was -0.526 and the “glycan array binding signal (z-score)” value [24] was 1.56. The “glycan array binding signal (z-score)” value [25] was -0.407, the “glycan array binding signal (z-score)” value [26] was 0.935 and the “glycan array binding signal (z-score)” value [27] was -0.218. For the same binder, the “glycan array binding signal (z-score)” value [28] was -0.62, the “glycan array binding signal (z-score)” value [29] was -0.391 and the “glycan array binding signal (z-score)” value [30] was -0.74. For the same binder, the “glycan array binding signal (z-score)” value [31] was -0.696, the “glycan array binding signal (z-score)” value [32] was -0.195 and the “glycan array binding signal (z-score)” value [33] was -0.552. For the same binder, the “glycan array binding signal (z-score)” value [34] was -0.671, the “glycan array binding signal (z-score)” value (GlcNAc(b1-3)GalNAc) was -0.499 and the “glycan array binding signal (z-score)” value (GlcNAc(b1-3)Man) was -0.627. The “glycan array binding signal (z-score)” value [35] was -0.592, the “glycan array binding signal (z-score)” value [36] was -0.591 and the “glycan array binding signal (z-score)” value [37] was -0.319. For the same binder, the “glycan array binding signal (z-score)” value [38] was -0.126, the “glycan array binding signal (z-score)” value (GlcNAc(b1-4)GlcNAc) was -0.473 and the “glycan array binding signal (z-score)” value [39] was -0.27.
